The record followed here is article PMC7819943, “Rice protein-binding microarrays: a tool to detect cis-acting elements near promoter regions in rice”.

Some of the results follow.

The assay has as its target T1, OsWOX13 (Oryza sativa, UniProt Q5QMM3 1-267).
T1 sequence: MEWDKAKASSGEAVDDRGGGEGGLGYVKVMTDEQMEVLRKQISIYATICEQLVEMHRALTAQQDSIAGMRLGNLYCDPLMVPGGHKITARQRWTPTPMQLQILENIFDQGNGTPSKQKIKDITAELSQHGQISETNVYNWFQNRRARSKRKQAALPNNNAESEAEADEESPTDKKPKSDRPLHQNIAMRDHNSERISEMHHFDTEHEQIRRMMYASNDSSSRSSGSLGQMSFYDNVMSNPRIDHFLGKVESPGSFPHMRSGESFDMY
The assay is described as follows: protein-binding microarray (RPBM); PBS, 2% BSA, 51.3 ng/ul salmon testes DNA, 50 uM zinc acetate, 200 nM TF, 25 C, 1 h; high values mean tight binding. To be noted: protein: recombinant; tags: N-terminal polyhistidine and DsRed monomer fusion (pET32a); label: CyDye5-dUTP incorporated in the synthesized complementary strand; 3' TTTTT single-stranded linker to array surface; dsDNA, one strand shown. Summed up: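 Polyhistidine-tagged DsRed fusions of transcription factors, joined at the N-terminus, were expressed in E. coli BL21-CodonPlus and isolated on Ni–NTA. They were incubated at 200 nM for 1 h at 25 °C on a custom Agilent array, double-stranded and BSA-blocked, in PBS with 2% BSA, salmon testes DNA and 50 µM zinc acetate. The binding signal is per-feature fluorescence intensity (arbitrary units) read on an Axon 4000B scanner after washing.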
“GTCAATCTAATCACAAACTTAGATGTTTATGACCCACAAACGGAGTCACCTAGTGCAG”: the binding signal was 14900 fluorescence intensity (a.u.).
As for “TCTGTATTAATTTTATCCCGTGACTGCCGTTTTGCAACGGCGGAGTCACCTAGTGCAG”, the figure is 16900 fluorescence intensity (a.u.); as for “ATTAATTGTGTGCATGTATACATGCCTTATATTATGGAACCGGAGTCACCTAGTGCAG”, 20800 fluorescence intensity (a.u.); as for “TATAATTAAACTAATTTACAAGTAAAGTAAGTGTGAGAAACGGAGTCACCTAGTGCAG”, 4790 fluorescence intensity (a.u.).
As to “AGGGTTAATTTAGAGGTATTCACTCGCTGTTTTCATCACTCGGAGTCACCTAGTGCAG”, the binding signal was 6370 fluorescence intensity (a.u.).
As for “AACCAAAATTAAATAACCGCTTACCACAACACACGTGATACGGAGTCACCTAGTGCAG”, the figure is 3450 fluorescence intensity (a.u.); as for “ATTTAATTCCTGTGGCTTGATTTCCTTCTCGGCACAAGAACGGAGTCACCTAGTGCAG”, 6420 fluorescence intensity (a.u.).
As for “TCCAATAAAATCAATTTAATATACAAACATCAAATCTACTCGGAGTCACCTAGTGCAG”, the figure is 3480 fluorescence intensity (a.u.).
With “TACATATGTAATTGGTATGTAATTTTCGAATTTACATATGCGGAGTCACCTAGTGCAG” the figure was 18000 fluorescence intensity (a.u.); with “ATAAATTTGTGATGCCAATTTAAGTATGTTCATTCGATCTCGGAGTCACCTAGTGCAG”, 30200 fluorescence intensity (a.u.); with “ATAAAATTTTAAAATTTAAATTGTAGCCACAACTGATAAGCGGAGTCACCTAGTGCAG”, 15500 fluorescence intensity (a.u.).
As to “CCCTCGCCTGGGCCGATCCCCATACATCCCGCGAGCGCGACGGAGTCACCTAGTGCAG”, the binding signal is 3440 fluorescence intensity (a.u.).
“AACATCATTGCTAATTGGTAATATGACCATTCAAACTATTCGGAGTCACCTAGTGCAG”: the binding signal was 17100 fluorescence intensity (a.u.).
With “AACTGATGGCCCTAGAGAAATCCAATCAGAACCACATAGCCGGAGTCACCTAGTGCAG” the figure was 3230 fluorescence intensity (a.u.); with “TATTTAATACTCTAAATTAATGTCTAAATATAGGGACTAACGGAGTCACCTAGTGCAG”, 3540 fluorescence intensity (a.u.).
With “GACAGCCAATTTAACTATTTAAGTTTAACTAGCTTGTACTCGGAGTCACCTAGTGCAG” the figure was 5120 fluorescence intensity (a.u.).
As for “GGTTAACTGAACTATATTTTCTTCGCAAAAGTAATAGAAACGGAGTCACCTAGTGCAG”, the figure is 3330 fluorescence intensity (a.u.); as for “CACAGGAGGTCTACTAATTGAACCGTGTATGATAATCGATCGGAGTCACCTAGTGCAG”, 3170 fluorescence intensity (a.u.).
Take “TAACAAATTTATTCGTTTAGTGATGATGTTTGTTCTTTCTCGGAGTCACCTAGTGCAG”: the binding signal was 4840 fluorescence intensity (a.u.).
With “CTTGTTTGATTTGACCCTATTATGTCATATAGTGTATATACGGAGTCACCTAGTGCAG” the figure was 14300 fluorescence intensity (a.u.).
In the case of “AAGAATAATAATTATATGTAACATGAATAAGAATAGTGATCGGAGTCACCTAGTGCAG”, the binding signal is 12200 fluorescence intensity (a.u.).
With “GCTGAGCTGATTGCTTGATTCCTCGCTCGTTCAATCTACTCGGAGTCACCTAGTGCAG” the figure was 20400 fluorescence intensity (a.u.); with “TAATGATTAAAGTATTTATGTTTGGGTCGTCAACCCCGCGCGGAGTCACCTAGTGCAG”, 17000 fluorescence intensity (a.u.); with “CGTATTAATCATTTAATCGTATGTCATAATTTCTGCAGAACGGAGTCACCTAGTGCAG”, 15800 fluorescence intensity (a.u.).
As for “ACTAGTTAATCACGATTGATGGAAGCGGTTGATTGAATGACGGAGTCACCTAGTGCAG”, the figure is 51400 fluorescence intensity (a.u.).
With “GGTGATGGATCCCCACAGTGACAGCAGATCTAGTCGAGAGCGGAGTCACCTAGTGCAG” the figure was 3230 fluorescence intensity (a.u.); with “TTAAGTCAATCATTAACAGTGCAACATGAATCTACATGATCGGAGTCACCTAGTGCAG”, 22600 fluorescence intensity (a.u.); with “TATTAAATTGCATGTGTCGATTAGTTTAATCTAAACACTTCGGAGTCACCTAGTGCAG”, 18100 fluorescence intensity (a.u.).
Take “AAGATTAGACTAATTCAACTAATTCTTTTCATCGATTCGCCGGAGTCACCTAGTGCAG”: the binding signal is 17000 fluorescence intensity (a.u.).
As for “TCTCTCATCAATTTAATGGATATTATATTTTAATGCGTCCCGGAGTCACCTAGTGCAG”, the figure is 11000 fluorescence intensity (a.u.).
With “AATCCTAAATCAATCACCATAAGGTAAATTGACGTAGGAACGGAGTCACCTAGTGCAG” the figure was 15700 fluorescence intensity (a.u.).
As for “AAGACAATCTATGATTTAAGGTCTCCGCCTGGCTTTCCTTCGGAGTCACCTAGTGCAG”, the figure is 8720 fluorescence intensity (a.u.); as for “GAGTAGGATGGGGTTTGATTTTGGGGTTCGTGGGGTCGAGCGGAGTCACCTAGTGCAG”, 4140 fluorescence intensity (a.u.).
On to “TAGTCGTGTCAATTTGGAAAATTGGAAAGCCGTGGGGAGACGGAGTCACCTAGTGCAG”, for which the binding signal was 11400 fluorescence intensity (a.u.).
Consider “GTTGACATAATTGATGGATTAGATACTAGAACTTTACAGTCGGAGTCACCTAGTGCAG”, for which the binding signal is 46000 fluorescence intensity (a.u.).
With “ATACTATCGTGTGATTTTGATAATTTAGTTTTATATAAGTCGGAGTCACCTAGTGCAG” the figure was 3900 fluorescence intensity (a.u.); with “CTTGACGAAATTGAAGTACACTCCTTGTCGTTTATCGTGTCGGAGTCACCTAGTGCAG”, 35700 fluorescence intensity (a.u.).
On to “ATAAATTTATACAGCAATGCATGCATGTTTAACCAACACACGGAGTCACCTAGTGCAG”, for which the binding signal was 14500 fluorescence intensity (a.u.).
As for “CATATTGATGCTAATGAACCACATTCATATTGATGATATCCGGAGTCACCTAGTGCAG”, the figure is 4090 fluorescence intensity (a.u.).
“ATTATTAAATGAGATAAATCATCAAATGTATTGTTTAAATCGGAGTCACCTAGTGCAG”: the binding signal was 3660 fluorescence intensity (a.u.).
As for “GAAAATCACTCTCATCATCAAATCAAGGGAACCGTATGAACGGAGTCACCTAGTGCAG”, the figure is 10200 fluorescence intensity (a.u.).
“GATGATTTGATCCAAGCTGAGATCGAGCTCTACCACCACTCGGAGTCACCTAGTGCAG”: the binding signal was 31500 fluorescence intensity (a.u.).
